The text below walks through data of US20250333508A1 (ZHEJIANG NANOMAB TECHNOLOGY CENTER, published 2025).

Changes are numbered by the printed parent chain.

For assay [1], the target named is T1, murine CTLA-4. his tag protein (murine, UniProt P09793 36-161).
T1 construct: Bought (ACRO Biosystems); also called mouse CTLA-4; not shown: His tag
Nature of the assay: ELISA on coated mouse CTLA-4 his tag protein, goat anti-human IgG-Fc HRP; unit from the axis; no upper plateau within the range shown. In general terms: ELISA stands for enzyme-linked immunosorbent assay.

The target in assay [2] is T2, human CTLA-4 his tag antigen (human, UniProt P16410 36-161).
T2 construct: Bought (ACRO Biosystems); also called CTLA-4. his tag protein (human); not shown: His tag
T2 sequence (looked up): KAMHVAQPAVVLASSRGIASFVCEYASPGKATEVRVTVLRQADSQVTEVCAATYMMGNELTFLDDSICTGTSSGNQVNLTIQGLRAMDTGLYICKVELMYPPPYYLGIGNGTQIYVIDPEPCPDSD
Briefly: ELISA on coated human CTLA-4 his tag protein, goat anti-human IgG-Fc HRP; unit from the axis.

For assay [3], the target named is T2, human CTLA-4 his tag antigen. Briefly: SPR, Ab on protein A, CTLA-4.His in flow. For orientation: SPR reads the build-up and loss of mass on a sensor chip optically.
The target of assay [4] is T3, human CTLA-4 on HEK293T cells expressing CTLA-4 extracellular domain (human, UniProt P16410 36-161).
T3 construct: extracellular domain
T3 sequence (looked up): T2 sequence (looked up)
Briefly: flow cytometry on 293T cells overexpressing human CTLA-4; the EC50 table has no unit, unit taken from the concentration axis (text says nM). (Flow cytometry measures light scatter and fluorescence of single cells or particles in a stream.)

The target in assay [5] is T4, cynomolgus monkey CTLA-4. his tag protein (cynomolgus monkey, UniProt G7PL88 36-161).
T4 construct: Bought (ACRO Biosystems)
T4 sequence: T2 sequence (looked up) with S14N, I18T, L106M
Nature of the assay: ELISA on coated cynomolgus monkey CTLA-4 his tag protein, goat anti-human IgG-Fc HRP; unit from the axis.

Assay [6] addresses T3, human CTLA-4 on HEK293T cells …. Nature of the assay: flow cytometry competition on 293T cells overexpressing CTLA-4, competitor biotinylated B7-1-Fc.
Assay [7] shares this target. Nature of the assay: flow cytometry competition on 293T cells overexpressing CTLA-4; blocked ligand biotin labeled B7-1; the IC50 table has no unit, unit taken from the concentration axis (text says nM and gives the three values to other antibodies).

B1: NGS-16-z2 (Fc fusion)
chain: EVQLVESGGGLVQPGGSLRLSCAASGGTLDYWSIGWFRQAPGKEREEVSCISGTGLRTNYADSVKGRFTISRDNSKNTVILQMNSLRAEDTAVYYCTGKLLHPSLWSACANEYDLWGQGTQVTVSS[skipping human IgG4 Fc with S228P (EU numbers)]
notes: Format in the assay not restated
For B1, the EC50 (as a rule, the midpoint of the concentration-response curve) in assay [1] was 9.64 nM; in assay [2], 0.00292 nM; in assay [4], 7.8 µg/mL; in assay [5] it was 0.00461 nM. In addition, binding in assay [3] was characterised by a dissociation constant (Kd) of 0.559 nM. Also, the koff – broadly, the first-order rate constant of dissociation – in assay [3] was determined as 0.00038 s⁻¹. Besides, the on-rate constant (kon) (commonly the rate constant with which the complex forms) in assay [3] was found to be 680000 M⁻¹ s⁻¹. Moreover, the IC50 – broadly, the point on the concentration scale where inhibition reaches its midpoint – was 2.4 nM in assay [6] and 1.83 µg/mL in assay [7].

B2: NGS-12-z1 (Fc fusion)
chain: EVQLVESGGGLVQPGGSLRLSCAASGFSSDYYDIGWFRQAPGKEREMVSCIRSSGGSTKYADSVKGRFTISRDNSKNTVYLQMNSLRAEDTAVYYCGLAPISPVHAVCNQHYFGYWGQGTRVTVSS[skipping human IgG4 Fc with S228P (EU numbers)]
notes: as for B1
For the molecule B2, the EC50 in assay [1] stood at 4.3 nM; in assay [2] it was 0.0307 nM; in assay [4] it was 9.87 µg/mL; in assay [5], 0.0389 nM. Moreover, the equilibrium dissociation constant (Kd) (commonly the equilibrium constant for the complex coming apart) in assay [3] amounted to 1.39 nM. This molecule gave a koff in assay [3] of 0.00075 s⁻¹. The same molecule yielded a kon in assay [3] of 540000 M⁻¹ s⁻¹. In addition, the IC50 in assay [6] worked out at 2.6 nM; in assay [7], 2.37 µg/mL.

B3: NB-27-z5 (Fc fusion)
chain: EVQLVESGGGLVQPGGSLRLSCAASGSTLDPFVIGWFRQAPGKERETVACINRSRTSYADSVKGRFTISRDNSKNMVYLQMNSLRAEDTAVYYCAASPDKPFYTDQTMCNKHYYGYWTQGTQVTVSS[skipping human IgG4 Fc with S228P (EU numbers)]
notes: as for B1
As to B3, the EC50 stood at 2.03 nM in assay [1] and 0.191 nM in assay [5].
